Laboratory results as given in PubChem BioAssay AID1347073 (National Center for Advancing Translational Sciences (NCATS), 2019).
Hit rate of the full screen: of about 45,000 compounds, about 200 (0.44%) were called active. Another 7% or so got no clear call; they are omitted. Calls come from the whole dose curve; as a rule, active = well fitted activation curve with a large enough effect; inconclusive = small, poorly fitted or top-dose-only effect; inactive = no such curve, though single readings can be large or run the other way. Some of the results follow.

test: qHTS of TDP-43 Inhibitors: NCGC Sytravon Library Screen; details: yeast TDP-43 toxicity rescue, BacTiter-Glo growth, 24 h; at 46.1 µM (top of the series); note: 0% is about no effect; nearly all actives have a fitted effect of over 55% in size
Outline: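 TDP-43-expressing yeast, pregrown in raffinose, seeded at OD600 0.02 in galactose medium with compound for 24 hr at 30 deg C. Growth read by BacTiter-Glo luminescence, so rescue of toxicity appears as activation.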

Compound | growth rescue (activation)
CC1=CC(=C2C(=O)NC(=O)NC2=O)C=C(C(F)(F)F)N1Cc1ccccc1 | inactive: 1.37%
O=C(c1ccc(Cl)cc1)C1CCCN(C2CCSCC2)C1 (stereo unspecified) | inactive: 9.44%
CN1OC[C@@H]2COc3ccc4ccccc4c3[C@@H]21 | inactive: 6.52%
Cc1ccccc1-n1c(O)c(/C=N/c2nccs2)c(=O)[nH]c1=O | inactive: 2.66%
CC1CN2c3ccc([N+](=O)[O-])cc3CC3(C(=O)N(C)C(=O)N(C)C3=O)C2C(C)O1 (stereo unspecified) | inactive: 1.18%
Cc1ccc(S(=O)(=O)NC(Cc2cnc[nH]2)C(=O)O)cc1 (stereo unspecified) | inactive: 5.44%
CC(C)CN(C(=O)CN1CC=C(c2ccccc2)CC1)c1c(N)n(CC(C)C)c(=O)[nH]c1=O | inactive: -7.54%
COc1ccccc1N1C(=O)NC(=O)/C(=C/c2ccc3c4c(cccc24)CC3)C1=O | inactive: 1.44%
C=CCn1c(O)c(C(C)=Nc2cc(OC)ccc2OC)c(=O)[nH]c1=O | inactive: -17.9%
c1ccc(CNc2c3c(nc4ccccc24)CCC3)cc1 | inactive: 11.6%
CN1C(=O)C(=Cc2ccccc2OCc2ccc(C(=O)O)cc2)C(=O)N(C)C1=O | inactive: -0.293%
CN(C(=O)c1ccc(Cl)nc1)C1(c2ccccc2Cl)CCCCC1=O (stereo unspecified) | inactive: 17.1%
O=C(/C=C/c1ccc2c(c1)OCO2)c1c(O)n(CCC2=CCCCC2)c(=O)[nH]c1=O | inactive: -4.73%
CN(C)c1ccc(/C=C/C=C/c2sc3ccccc3[n+]2C)cc1 | inactive: -35.2%
COC(=O)Cn1cc(/C=C2\C(=O)NC(=O)N(c3ccccc3)C2=O)c2ccccc21 | inactive: -6.24%
C[n+]1c(-c2ccccc2)cc(-c2ccc(Cl)cc2)cc1-c1ccccc1 | inactive: 5.98%
O=C1NC(=O)C(Sc2ccccc2[N+](=O)[O-])C(=O)N1 | inactive: -0.477%
C=CCN1C(=O)NC(=O)/C(=C/c2ccc(OC)c(COc3ccc(NC(C)=O)cc3)c2)C1=O | inactive: -2.12%
O=Cc1cn(Cc2cccc(F)c2)c2ccccc12 | inactive: 27%
CN1CCN(c2cc(N3CCNCC3)ccc2[N+](=O)[O-])CC1 | inactive: 7.32%
C[C@]12CC[C@@H](O)CC1=CCC1C2CC[C@@]2(C)C1C[C@@H](F)[C@H]2O (stereo partly specified) | inactive: 26.5%
COc1ccc(-c2[nH]ncc2CNC(C)Cc2cccc(C)n2)cc1F (stereo unspecified) | inactive: 7.11%
COc1ccc2c(CCN)c[nH]c2c1 | inactive: 11.9%

Compound | growth rescue (activation)
CCn1cc(/C=c2/sc3n(c2=O)C2c4ccccc4OC(C)(N=3)C2C(=O)OC)c(C)n1 (stereo unspecified) | inactive: 4.16%
Cc1ccc(O)c(C(=O)c2cc(C(=O)NCCC(C)C)c(=O)n(CCC(C)C)c2)c1 | inactive: -11.9%
COc1ccc(CC2(CCc3ccccn3)C(=O)NC(=O)N(c3ccccc3C)C2=O)cc1OC (stereo unspecified) | inactive: 6.99%
O=c1[nH]c(=O)n(-c2ccc(F)cc2)c(O)c1/C=C1\C=Nc2ccccc21 | inactive: -6.33%
O=C1NC(=O)N(c2ccccc2)C(=O)/C1=C\c1ccc([N+](=O)[O-])s1 | inactive: 24.7%
NC(Cc1ccccc1)c1nc2ccccc2[nH]1 (stereo unspecified) | inactive: 1.79%
Cc1c(N=Nc2c(O)[nH]c(=O)[nH]c2=O)c(=O)n(-c2ccccc2)n1C | inactive: -0.708%
Cc1cc(N2CCOCC2)ccc1/C=C1\C(=O)NC(=O)N(c2ccccc2)C1=O | inactive: 1.09%
Cc1ccc2c(c1)c(=O)c1c3n2CCN(CC2CO2)C3CC1 (stereo unspecified) | inactive: -2.4%
OCCOCC#CCN1CCOCC1 | inactive: -13%
Cc1ccccc1-n1c(O)c(/C=C2/C(c3ccccc3)=Nc3ccccc32)c(=O)[nH]c1=O | inactive: 20.3%
O=c1c2ccccc2nc(/C=C\c2ccccc2[N+](=O)[O-])n1-c1ccccc1O | inactive: 13.8%
COc1ccc(OCC(=O)N2CCN(CC3CC4C=CC3C4)CC2)cc1 (stereo unspecified) | inactive: 1.8%
COc1cc(CC2(CCc3ccncc3)C(=O)N(C)C(=O)N(C)C2=O)cc(OC)c1OC | inactive: 4.35%
CCc1ccc(N2C(=O)NC(=O)C(CCc3ccncc3)(CCc3ccncc3)C2=O)cc1 | inactive: 3%
C[C@@H]1CC2C3CC=C4C[C@@H](O)CC[C@]4(C)C3CC[C@]2(C)[C@H]1O (stereo partly specified) | inactive: 17.6%
CC(=O)N1CN2CN(C1)CN(C(C)=O)C2 | inactive: 5.84%
O=C(CSC1c2ccccc2-c2ccccc21)N/N=C/c1ccc(C(=O)O)cc1 | inactive: 10.7%
C=CCn1c(O)c(C(CC)=NCCc2c[nH]c3ccccc23)c(=O)[nH]c1=O | inactive: 14.6%
CC(=NCCCO)c1c(O)[nH]c(=O)[nH]c1=O | inactive: 9.16%
Nc1c2c(nc3sc4c(c13)CCCC4)CCCC2 | inactive: 6.52%
CC1CN(CC(=O)c2ccccc2Cl)CC(C)O1 (stereo unspecified) | inactive: 11%
O=[N+]([O-])NC1=NCN(Cc2ccco2)CN1Cc1ccco1 | inactive: -30.4%
